In the antibiotic and cytotoxicity screens of Wong et al. (2023):
Some of the results follow.

test system: HepG2; experiment: cytotoxicity call (relative viability < 0.9); settings: 10 µM

SMILES	cytotoxicity call
C[C@@H]1O[C@@H](OC[C@H]2O[C@@H](Oc3c(-c4ccc(O)cc4)oc4cc(O)cc(O)c4c3=O)[C@H](O)[C@@H](O)[C@@H]2O)[C@H](O)[C@H](O)[C@H]1O	inactive
C[C@@H]1CN([C@@H](C)CO)C(=O)c2cc(NS(=O)(=O)c3ccccc3)ccc2O[C@@H]1CN(C)S(C)(=O)=O	inactive
C[C@@H]1CN([C@H](C)CO)S(=O)(=O)c2ccc(-c3ccc(F)cc3)cc2O[C@@H]1CN(C)S(C)(=O)=O	inactive
C[C@H]1CN([C@@H](C)CO)C(=O)c2cc(NC(=O)Nc3ccccc3)ccc2O[C@@H]1CN(C)CC1CCCCC1	inactive
C[C@H]1CCCCO[C@H](CN(C)Cc2ccc(C(F)(F)F)cc2)[C@@H](C)CN([C@@H](C)CO)C(=O)c2cc(NC(=O)Nc3cccc4ccccc34)ccc2O1	inactive
Cc1noc(C)c1NC(=O)Nc1cccc2c1O[C@H](CN(C)C(=O)Nc1cccc3ccccc13)[C@@H](C)CN([C@@H](C)CO)C2=O	inactive
C[C@@H]1CN([C@@H](C)CO)C(=O)c2cc(-c3ccc(C(=O)N(C)C)cc3)cnc2O[C@H]1CN(C)C(=O)c1cccnc1	inactive
COc1ccc2c3c(n(c2c1)C)[C@@H](CO)N(C[C@]13CCN(CC1)C(=O)C1CCOCC1)C(=O)C1CCOCC1	inactive
Nc1ccn(C2OC(CO)C(O)C2O)c(=O)n1 (stereo not given)	inactive
C[C@H]1CN([C@@H](C)CO)S(=O)(=O)c2ccc(C#CC3CC3)cc2O[C@@H]1CN(C)Cc1cccc(F)c1	inactive
Cc1ccc(S(=O)(=O)N(C)C[C@@H]2Oc3ccc(NC(=O)CCCN(C)C)cc3C(=O)N([C@@H](C)CO)C[C@@H]2C)cc1	inactive
C[C@@H]1CN([C@@H](C)CO)C(=O)c2cc(NS(=O)(=O)c3cn(C)cn3)ccc2O[C@@H](C)CCCCO[C@H]1CN(C)CC1CC1	inactive
O=C1C=CC(=O)N1	active
C[C@@H]1CN([C@H](C)CO)C(=O)c2cc(NC(=O)C3CC3)ccc2O[C@@H]1CN(C)S(=O)(=O)c1cccs1	inactive
C=CC[C@H](CC(=O)N(CCO)Cc1ccccc1)C(=O)N[C@H](COC(=O)[C@H](CC=C)CC(=O)OC(C)(C)C)Cc1c[nH]c2ccccc12	inactive
COc1ccc(CN(C)C[C@@H]2Oc3ccc(NC(=O)Nc4cccc5ccccc45)cc3CC(=O)N([C@@H](C)CO)C[C@@H]2C)cc1	active
Cc1noc(C)c1NC(=O)Nc1ccc2c(c1)C(=O)N([C@@H](C)CO)C[C@@H](C)[C@@H](CN(C)C(=O)Nc1ccccc1)OCCCC[C@H](C)O2	inactive
O=C(O)C1CSCN1 (stereo not given)	inactive
C[C@H]1CCCCO[C@@H](CN(C)CC2CCCCC2)[C@@H](C)CN([C@@H](C)CO)C(=O)c2cc(NC(=O)Nc3ccccc3)ccc2O1	active
COc1ccc(C#Cc2cnc3c(c2)C(=O)N([C@@H](C)CO)C[C@@H](C)[C@@H](CN(C)C(=O)CC2CC2)O3)cc1	inactive

SMILES	cytotoxicity call
C[C@H](CO)N1C[C@H](C)[C@H](CN(C)C(=O)Nc2ccc3c(c2)OCO3)Oc2ccc(NS(C)(=O)=O)cc2C1=O	inactive
C[C@H](CO)N1C[C@H](C)[C@H](CN(C)Cc2ccc(Cl)c(Cl)c2)Oc2c(NC(=O)C3CCCCC3)cccc2C1=O	inactive
C[C@@H]1CN([C@H](C)CO)C(=O)c2cc(NC(=O)CCCCCC(=O)Nc3ccccc3N)ccc2O[C@@H]1CN(C)Cc1ccc(C(F)(F)F)cc1	inactive
N[C@@H](C(=O)O)[C@@H](O)[C@H](O)[C@H](O)CO	inactive
O=C(C[C@@H]1C=C[C@@H](NC(=O)c2ccc(F)cc2)[C@H](CO)O1)NCc1ccncn1	inactive
O=C(C[C@@H]1CC[C@@H](NS(=O)(=O)c2ccccc2F)[C@H](CO)O1)NCCCN1CCOCC1	inactive
C[C@@H]1CN([C@@H](C)CO)C(=O)c2cc(NC(=O)NC3CCCCC3)ccc2O[C@H]1CN(C)Cc1ccc(C(=O)Nc2ccccc2N)cc1	inactive
C[C@H]1CN([C@@H](C)CO)C(=O)c2cc(NS(=O)(=O)c3ccc(F)cc3)ccc2O[C@H]1CN(C)Cc1ccc(Cl)c(Cl)c1	inactive
C[C@@H]1CN([C@@H](C)CO)C(=O)CCCn2nncc2CO[C@H]1CN(C)C(=O)c1cc(-c2ccccc2)on1	inactive
O=c1[nH]c(=O)n([C@@H]2O[C@H](CO)[C@@H](O)[C@H]2O)cc1Br	inactive
Cc1noc(C)c1NC(=O)N(C)C[C@H]1OCCCC[C@@H](C)Oc2ccc(NC(=O)Cc3ccccc3)cc2C(=O)N([C@H](C)CO)C[C@@H]1C	inactive
COc1ccc(S(=O)(=O)N2C[C@H](O)COC[C@H]3O[C@H](CC(=O)NCCCN(C)C)CC[C@@H]32)cc1	inactive
CC(C)NC(=O)Nc1ccc2c(c1)C(=O)N([C@@H](C)CO)C[C@@H](C)[C@@H](CN(C)Cc1ccc(-c3ccccc3)cc1)O2	active
O=C(C[C@@H]1CC[C@@H]2[C@H](COC[C@@H](O)CN2C(=O)Nc2cccc(Cl)c2)O1)NCc1ccccc1F	inactive
COc1cccc(NC(=O)N2C[C@@H](O)COC[C@H]3O[C@H](CC(=O)NC4Cc5ccccc5C4)CC[C@@H]32)c1	inactive
C[C@@H]1CN([C@@H](C)CO)C(=O)c2cc(N(C)C)ccc2O[C@@H]1CN(C)S(=O)(=O)c1ccc(Cl)cc1	inactive
CC(=O)N[C@H]1[C@H](O[C@H]2CC[C@]3(C)[C@H]4CC=C5[C@@H]6CC(C)(C)CC[C@]6(C(=O)O[C@H]6OC[C@@H](O)[C@@H](O)[C@@H]6O)[C@@H](O)C[C@@]5(C)[C@]4(C)CC[C@H]3C2(C)C)O[C@H](CO[C@H]2OC[C@@H](O)[C@@H](O[C@H]3OC[C@@H](O)[C@@H](O)[C@@H]3O)[C@@H]2O)[C@@H](O[C@@H]2O[C@@H](C)[C@H](O)[C@@H](O)[C@H]2O[C@@H]2O[C@@H](C)[C@H](O)[C@@H](O)[C@H]2O)[C@@H]1O	active
COc1ccc(CN(C)C[C@H]2OCCCC[C@@H](C)Oc3ccc(NS(=O)(=O)c4ccc(OC)cc4)cc3C(=O)N([C@H](C)CO)C[C@@H]2C)cc1	inactive
C[C@H]1CN([C@@H](C)CO)C(=O)c2cccc(NS(=O)(=O)c3ccc(F)cc3)c2O[C@H]1CN(C)Cc1ccncc1	inactive
Cc1noc(C)c1NC(=O)Nc1ccc2c(c1)CC(=O)N([C@@H](C)CO)C[C@@H](C)[C@@H](CN(C)C(=O)Nc1cccc3ccccc13)O2	inactive
